Source: patent publication US20240226057A1, “NEW USE OF MONENSIN” (MAST PHARMA AB, priority 2021, published 2024)

System: tracheal segments from house dust mite (HDM) sensitized guinea pigs
Experiment: Antigen-induced bronchoconstriction ex vivo (organ bath)

CC[C@]1([C@H]2O[C@H]([C@@H]3O[C@](O)(CO)[C@@H](C)C[C@H]3C)C[C@H]2C)CC[C@@H]([C@@]2(C)CC[C@@]3(C[C@@H](O)[C@H](C)[C@H]([C@H](C)[C@H](OC)[C@H](C)C(=O)O)O3)O2)O1 [Monensin, 4-[2-[5-ethyl-5-[5-[6-hydroxy-6-(hydroxymethyl)-3,5-dimethyl-oxan-2-yl]-3-methyl-oxolan-2-yl]oxolan-2-yl]-9-hydroxy-2,8-dimethyl-1,6-dioxaspiro[4.5]dec7-yl]-3-methoxy-2-methyl-pentanoic acid]
Gross lung tissue damage ex vivo: does not cause any gross lung tissue damage
Carbachol-induced contraction, 1 μM (1 μM monensin, 48 hours): did not affect
Carbachol concentration response curve, 10 μM (10 μM monensin, 48 hours): decreased
HDM-induced contraction (segments cultured 48 hours with 1 or 10 μM (both concentrations)): almost completely abolished
